{"source": "the supplement of paper PMC8047034", "note": "Counter-ions that a name gives are not always drawn. The list shows a part of the results. Repeats are few or missing, and single values can be far off.", "data": [{"system": "OVCAR4", "experiment": "log2 surviving fraction (library drug vs vehicle, or drug + carboplatin vs carboplatin alone; relative to plate median); higher = more cell survival", "details": "library drug concentration 10 µM; 7 days; carboplatin co-treatment 5 µM", "values": [{"smiles": "CCOc1nc2cccc(C(=O)O)c2n1Cc1ccc(-c2ccccc2-c2nnn[nH]2)cc1", "note": "[Candesartan (Atacand)]", "log2 surviving fraction": 0.371}, {"smiles": "Cc1nc2n(c(=O)c1CCN1CCC(c3noc4cc(F)ccc34)CC1)CCCC2", "note": "[Risperidone (Risperdal)]", "log2 surviving fraction": -0.564}, {"smiles": "CCCCC1C(=O)N(c2ccccc2)N(c2ccccc2)C1=O", "note": "[Phenylbutazone (Butazolidin, Butatron)]", "log2 surviving fraction": -0.417}, {"smiles": "O=C(O)c1ccc(NC(=O)[C@H](Cc2ccc(O)cc2)NC(=O)c2ccccc2)cc1", "note": "[Bentiromide]", "log2 surviving fraction": 0.116}, {"smiles": "CC(C(=O)O)c1cccc(Oc2ccccc2)c1", "note": "(stereo not drawn) [Fenoprofen calcium]", "log2 surviving fraction": 1.13}, {"smiles": "Oc1cc(O)c(Cl)cn1", "note": "[Gimeracil]", "log2 surviving fraction": 0.348}, {"smiles": "CCOC(=O)[C@H](CCc1ccccc1)N[C@@H](C)C(=O)N1CCC[C@H]1C(=O)O", "note": "[Enalapril maleate (Vasotec)]", "log2 surviving fraction": 0.116}, {"smiles": "CN1CCN(CCCN2c3ccccc3Sc3ccc(Cl)cc32)CC1", "note": "[Prochlorperazine Dimaleate]", "log2 surviving fraction": -0.776}, {"smiles": "C[N+](C)(C)C[C@H](O)CC(=O)[O-]", "note": "[L-carnitine (Levocarnitine)]", "log2 surviving fraction": 0.287}, {"smiles": "CCOC(=O)OC(C)OC1=C(C(=O)Nc2ccccn2)N(C)S(=O)(=O)c2ccccc21", "note": "(stereo not drawn) [Ampiroxicam]", "log2 surviving fraction": 0.565}, {"smiles": "CC12CC3CC(C)(C1)CC(N)(C3)C2", "note": "[Memantine HCl (Namenda)]", "log2 surviving fraction": 0.0762}, {"smiles": "CCN(CC)CCOC(=O)C(c1ccccc1)c1ccccc1", "note": "[Adiphenine HCl]", "log2 surviving fraction": -0.197}, {"smiles": "CCOC(CN1CCN(CC(C)C(=O)c2ccccc2)CC1)c1ccccc1", "note": "(stereo not drawn) [Eprazinone 2HCl]", "log2 surviving fraction": 0.597}, {"smiles": "O.O.O.O.O=C([O-])CC(O)(CC(=O)[O-])C(=O)[O-].[Li+].[Li+].[Li+]", "note": "[Lithium Citrate]", "log2 surviving fraction": 0.612}, {"smiles": "O=[N+]([O-])c1ccc([As](=O)(O)O)cc1", "note": "[Nitarsone]", "log2 surviving fraction": 0.0166}, {"smiles": "CC1=C(CC(=O)O)c2cc(F)ccc2/C1=C\\c1ccc([S+](C)[O-])cc1", "note": "(stereo not drawn) [Sulindac (Clinoril)]", "log2 surviving fraction": 0.935}]}, {"system": "Ov4Carbo", "experiment": "log2 surviving fraction (library drug vs vehicle, or drug + carboplatin vs carboplatin alone; relative to plate median); ovarian cancer lines: OVCAR4 is platinum-sensitive and Ov4Carbo platinum-resistant; higher = more cell survival", "details": "library drug concentration 10 µM; 7 days; carboplatin co-treatment 0 µM", "values": [{"smiles": "O=S(=O)(O)Oc1ccc(C(c2ccc(OS(=O)(=O)O)cc2)c2ccccn2)cc1", "note": "[Sodium Picosulfate]", "log2 surviving fraction": 0.512}, {"smiles": "C[C@]12CC[C@@H]3c4ccc(O)cc4CC[C@H]3[C@@H]1CC[C@@H]2O", "note": "[Estradiol]", "log2 surviving fraction": -0.333}, {"smiles": "CC(=O)[C@@]1(O)CC[C@H]2[C@@H]3CCC4=CC(=O)CCC4=C3[C@@H](c3ccc(N(C)C)cc3)C[C@@]21C", "note": "[Ulipristal]", "log2 surviving fraction": -1.27}, {"smiles": "O=C(NCCO[N+](=O)[O-])c1cccnc1", "note": "[Nicorandil (Ikorel)]", "log2 surviving fraction": -0.391}, {"smiles": "O=C(Nc1ccc([N+](=O)[O-])cc1Cl)c1cc(Cl)ccc1O", "note": "[Niclosamide (Niclocide)]", "log2 surviving fraction": -8.08}, {"smiles": "CC(C)/N=c1\\cc2n(-c3ccc(Cl)cc3)c3ccccc3nc-2cc1Nc1ccc(Cl)cc1", "note": "[Clofazimine]", "log2 surviving fraction": -1.38}, {"smiles": "CC(C)c1nc(CN(C)C(=O)N[C@@H](CCN2CCOCC2)C(=O)N[C@H](CC[C@H](Cc2ccccc2)NC(=O)OCc2cncs2)Cc2ccccc2)cs1", "note": "[Cobicistat (GS-9350)]", "log2 surviving fraction": -2.65}, {"smiles": "Clc1ccc(COC(Cn2ccnc2)c2ccc(Cl)cc2Cl)c(Cl)c1", "note": "(stereo not drawn) [Miconazole nitrate]", "log2 surviving fraction": -6.94}, {"smiles": "COC(=O)CCc1ccc(OCC(O)CNC(C)C)cc1", "note": "(stereo not drawn) [Esmolol HCl]", "log2 surviving fraction": 0.422}, {"smiles": "CCOC(=O)c1cncn1[C@H](C)c1ccccc1", "note": "[Etomidate]", "log2 surviving fraction": 0.252}, {"smiles": "CC[C@H](C)C(=O)O[C@H]1C[C@@H](C)C=C2C=C[C@H](C)[C@H](CC[C@@H]3C[C@@H](O)CC(=O)O3)[C@H]21", "note": "[Lovastatin (Mevacor)]", "log2 surviving fraction": -2.27}, {"smiles": "N#CC1(c2ccc(NC(=O)c3cccnc3NCc3ccncc3)cc2)CCCC1", "note": "[Apatinib (YN968D1)]", "log2 surviving fraction": -0.307}, {"smiles": "Cc1cc(-n2c(=O)[nH]c(=O)n(C)c2=O)ccc1Oc1ccc(SC(F)(F)F)cc1", "note": "[toltrazuril]", "log2 surviving fraction": 0.585}, {"smiles": "Nc1ccc(S(=O)(=O)Nc2ccccn2)cc1", "note": "[Sulfapyridine (Dagenan)]", "log2 surviving fraction": 0.152}, {"smiles": "CNCCCC12CCC(c3ccccc31)c1ccccc12", "note": "[Maprotiline hydrochloride]", "log2 surviving fraction": -1}, {"smiles": "CCCc1cc(C(N)=S)ccn1", "note": "[Protionamide (Prothionamide)]", "log2 surviving fraction": 0.255}, {"smiles": "CC(C)c1nc(N(C)S(C)(=O)=O)nc(-c2ccc(F)cc2)c1/C=C/[C@@H](O)C[C@@H](O)CC(=O)O", "note": "[Rosuvastatin calcium (Crestor)]", "log2 surviving fraction": -0.494}]}]}
